This is one part of the list.
Experiments:
Assay in all cases: glycan array binding signal (z-score within array); higher = stronger binding
Details in all cases: glycan notation: IUPAC condensed, linker removed
[1] = biological target: Man(a1-2)Man(a1-3)[Man(a1-2)Man(a1-6)]Man(a1-6)[Man(a1-2)Man(a1-2)Man(a1-3)]Man
How it was run: (§1)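 The binding signal is a Z-score computed within each array. Data were drawn from 3228 arrays in the Consortium for Functional Glycomics database, restricted to those with a known protein sequence. Scores were averaged over arrays of the same protein sequence at different concentrations or buffers, and over linkers, and negative values can be taken as non-binding.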

[2] = biological target: Man(a1-2)Man(a1-3)[Man(a1-2)Man(a1-6)]Man(a1-6)[Man(a1-2)Man(a1-2)Man(a1-3)]Man(b1-4)GlcNAc(b1-4)GlcNAc
How it was run: as §1

[3] = biological target: Man(a1-2)Man(a1-3)[Man(a1-6)]Man(a1-6)[Man(a1-2)Man(a1-3)]Man(b1-4)GlcNAc(b1-4)GlcNAc
How it was run: as §1

[4] = biological target: Man(a1-2)Man(a1-6)[Man(a1-3)]Man(a1-6)[Man(a1-2)Man(a1-2)Man(a1-3)]Man
How it was run: as §1

[5] = biological target: Man(a1-2)Man(a1-6)[Man(a1-3)]Man(a1-6)[Man(a1-2)Man(a1-2)Man(a1-3)]Man(b1-4)GlcNAc(b1-4)GlcNAc
How it was run: as §1

[6] = biological target: Man(a1-3)[Man(a1-6)]Man
How it was run: as §1

[7] = biological target: Man(a1-3)[Man(a1-6)]Man(a1-6)[Man(a1-2)Man(a1-3)]Man(b1-4)GlcNAc(b1-4)GlcNAc
How it was run: as §1

[8] = biological target: Man(a1-3)[Man(a1-6)]Man(a1-6)[Man(a1-3)]Man
How it was run: as §1

[9] = biological target: Man(a1-3)[Man(a1-6)]Man(a1-6)[Man(a1-3)]Man(b1-4)GlcNAc(b1-4)GlcNAc
How it was run: as §1

[10] = biological target: Man(a1-3)[Man(a1-6)]Man(b1-4)GlcNAc(b1-4)GlcNAc
How it was run: as §1

[11] = biological target: Man(a1-3)[Man(a1-6)]Man(b1-4)GlcNAc(b1-4)[Fuc(a1-6)]GlcNAc
How it was run: as §1

[12] = biological target: Man(a1-6)Man
How it was run: as §1

[13] = biological target: Man(b1-4)GlcNAc
How it was run: as §1

[14] = biological target: MurNAc(b1-4)GlcNAc
How it was run: as §1

[15] = biological target: Neu5Ac(a2-3)Gal
How it was run: as §1

[16] = biological target: Neu5Ac(a2-3)Gal(b1-3)GalNAc
How it was run: as §1

[17] = biological target: Neu5Ac(a2-3)Gal(b1-3)GalNAc(b1-3)Gal(a1-4)Gal(b1-4)Glc
How it was run: as §1

[18] = biological target: Neu5Ac(a2-3)Gal(b1-3)GalNAc(b1-4)Gal(b1-4)Glc
How it was run: as §1

[19] = biological target: Neu5Ac(a2-3)Gal(b1-3)GalNAc(b1-4)[Neu5Ac(a2-3)]Gal(b1-4)Glc
How it was run: as §1

[20] = biological target: Neu5Ac(a2-3)Gal(b1-3)GalNAc(b1-4)[Neu5Ac(a2-8)Neu5Ac(a2-3)]Gal(b1-4)Glc
How it was run: as §1

[21] = biological target: Neu5Ac(a2-3)Gal(b1-3)GalNAc6S
How it was run: as §1

[22] = biological target: Neu5Ac(a2-3)Gal(b1-3)GlcNAc
How it was run: as §1

[23] = biological target: Neu5Ac(a2-3)Gal(b1-3)GlcNAc(b1-2)Man
How it was run: as §1

[24] = biological target: Neu5Ac(a2-3)Gal(b1-3)GlcNAc(b1-2)Man(a1-3)[GlcNAc(b1-4)][Neu5Ac(a2-3)Gal(b1-3)GlcNAc(b1-2)Man(a1-6)]Man(b1-4)GlcNAc(b1-4)GlcNAc
How it was run: as §1

[25] = biological target: Neu5Ac(a2-3)Gal(b1-3)GlcNAc(b1-2)Man(a1-3)[Neu5Ac(a2-3)Gal(b1-3)GlcNAc(b1-2)Man(a1-6)]Man(b1-4)GlcNAc(b1-4)GlcNAc
How it was run: as §1

[26] = biological target: Neu5Ac(a2-3)Gal(b1-3)GlcNAc(b1-2)[Neu5Ac(a2-3)Gal(b1-3)GlcNAc(b1-4)]Man(a1-6)[Neu5Ac(a2-3)Gal(b1-3)GlcNAc(b1-2)Man(a1-3)]Man(b1-4)GlcNAc(b1-4)GlcNAc
How it was run: as §1

[27] = biological target: Neu5Ac(a2-3)Gal(b1-3)GlcNAc(b1-3)Gal(b1-3)GlcNAc
How it was run: as §1

[28] = biological target: Neu5Ac(a2-3)Gal(b1-3)GlcNAc(b1-3)Gal(b1-4)GlcNAc
How it was run: as §1

[29] = biological target: Neu5Ac(a2-3)Gal(b1-3)GlcNAc(b1-3)GalNAc
How it was run: as §1

[30] = biological target: Neu5Ac(a2-3)Gal(b1-3)GlcNAc(b1-6)GalNAc
How it was run: as §1

B1: SialidaseA (Arthrobacter ureafaciens) (protein)
chain: MRSNSTSAPSLVRRAATGVLTCAVSIGLLAGLGLPAQAAPTPPNSPTLPPGSFSETNLAADRTAANFFYRIPALTYLGNDVVLAAWDGRPGSAADAPNPNSIVQRRSTDGGKTWGPVQVIAAGHVADASGPRYGYSDPSYIYDAEANKVFAFFVYSKDQGFGGSQFGNDDADRNVISSAVIESSDAGVTWSQPRLITSVTKPGTSKTNPAAGDVRSNFASSGEGIQLKYGPHKGRLIQQYAGDVRQADGSNKIQAYSVYSDDHGVTWHKGANVGDRMDENKTVELSDGRVLLNSRDNANRGYRKVAVSTDGGATYGPVSQDTELPDPANNGAIARMFPNAAQGSADAKKLIFTNANSKTGRENVSARVSCDDGETWPGVRTIRSGFSAYSTVTRLADGKFGVLYEGNYTDNMPFATFDDAWLNYVCAPLAVPAVNIAPSATQEVPVTVTNQEATTLSGATATVYTPSGWSATTVPVPDVAPGASVTVTVALTAPADASGPRSLNAAFTTADGRVSQFTFTATTPVAPQVGLTITGSAPARDVAANPYQAGDVLGYTLNVKSTANVAANSVPLTGTFDSGFLPPAAPNCRYNNLAAGASYNCTTAKHTITAADMERGYFVPEATFSITSTTTPSLTKTVQFTGAAVALRDGLISADISGARTDVGRDLATRPYAAGELVPYAFTVKNTSPFVEQVVPTAGNFSPFLPAGAGNCRYLSLPAGQSYECATPRHAVTAEEVEQGFFVPDTTWEVSAAGQSTRTYRINGGEVDLLVRDAALSATVVAEWKDADGDRFASAGDPVTFTYTVGNAGNVALTGLEAPDAGISLPFLAPGDTATATREHVLTAADVAGGSLAASAFEATARNGSKEVTATAEGQPLELKVQPAQPSKEPELTVQDLEDQTPPFDLGTAFKYRTGQKVSLAGLEYGQWYYVYLNKTGYRLGWMFPTTGDTVEFILPPEVRNGRDDVVVLDKDGRRVSFDRLQVTPKGEKI
glycan array binding signal (z-score) [1]: 0.656
glycan array binding signal (z-score) [2]: -0.441
glycan array binding signal (z-score) [3]: -0.321
glycan array binding signal (z-score) [4]: -0.478
glycan array binding signal (z-score) [5]: -0.567
glycan array binding signal (z-score) [6]: -0.571
glycan array binding signal (z-score) [7]: -0.172
glycan array binding signal (z-score) [8]: -0.588
glycan array binding signal (z-score) [9]: -0.278
glycan array binding signal (z-score) [10]: -0.377
glycan array binding signal (z-score) [11]: -0.23
glycan array binding signal (z-score) [12]: -0.662
glycan array binding signal (z-score) [13]: -0.628
glycan array binding signal (z-score) [14]: -0.657
glycan array binding signal (z-score) [15]: -0.506
glycan array binding signal (z-score) [16]: 1.29
glycan array binding signal (z-score) [17]: 0.952
glycan array binding signal (z-score) [18]: -0.932
glycan array binding signal (z-score) [19]: 2.77
glycan array binding signal (z-score) [20]: -0.764
glycan array binding signal (z-score) [21]: 0.854
glycan array binding signal (z-score) [22]: 1.16
glycan array binding signal (z-score) [23]: 0.572
glycan array binding signal (z-score) [24]: -0.555
glycan array binding signal (z-score) [25]: -0.121
glycan array binding signal (z-score) [26]: 1.14
glycan array binding signal (z-score) [27]: 0.542
glycan array binding signal (z-score) [28]: 1.07
glycan array binding signal (z-score) [29]: -0.321
glycan array binding signal (z-score) [30]: 1.48

Reference: the supplement of paper PMC8728848
